Measured values as given in PubChem BioAssay AID463173 (ICCB-Longwood Screening Facility, Harvard Medical School, 2010).
Out of some 52,000 compounds screened, about 4,300 (8.3%) were called active. Rule as the data show it: active = survival mostly below about 52% (no sharp cut-off); inactive = mostly above about 56%. Some of the results follow.

Each molecule was assayed on DeltatarO mutant (assay: S. aureus survival, RN4220 and DeltatarO strains – OD600, teichoic acid synthesis inhibitors, primary screen (AID 463173)). Conditions: S. aureus RN4220 wild type/DeltatarO growth, OD600, 18 h, hits give low values, screened at 18.75 µg/mL (by protocol).

SMILES	survival
CCc1ccc(NC(=O)CC(NCc2cccnc2)C(=O)O)cc1 (centres undefined)	inactive: 68%
O=c1oc2ccccc2cc1-c1cn2cc(Cc3ccc(F)cc3)sc2n1	inactive: 128%
Cc1ccc(OCC(=O)Nc2ccc(OCc3cc(=O)n4c(C)csc4n3)cc2)cc1C	inactive: 124%
COc1cc2nc(C3CCC3)n(NC(=O)c3ccco3)c(=O)c2cc1OC	inactive: 82%
CSc1nn(Cc2ccc(F)cc2)c(N(C(C)=O)C(C)=O)c1S(=O)(=O)c1ccccc1	inactive: 74%
CCc1cccc(CC)c1NC(=O)CN(C)S(=O)(=O)c1ccc2c(c1)n(C)c(=O)c(=O)n2C	inactive: 80%
CC(=O)Nc1c(C(=O)c2ccc(F)cc2)oc2ccccc12	inactive: 106%
COc1cccc(CNC(=O)C2CCCN(c3nnc(-n4c(C)ccc4C)s3)C2)c1OC (centres undefined)	inactive: 84%
CCCCN(C(=O)c1cccs1)c1nnc(-c2cc(OC)cc(OC)c2)s1	inactive: 68%
COc1cccc(NC(=O)Cn2c(=O)oc3cc(S(=O)(=O)N4CCCCC4)ccc32)c1	inactive: 112%
Cc1ccc(C(=O)c2oc3ccccc3c2NC(=O)COc2ccc(Cl)c(C)c2)cc1	inactive: 90%
COc1cc(C2CC(=O)Nc3cc4c(cc32)OCO4)cc(OC)c1O (centres undefined)	inactive: 92%
Cc1c(C)n(Cc2ccc(Cl)cc2)c2ccc(C(=O)N3CCN(c4ccccc4F)CC3)cc12	inactive: 81%
COc1ccc(OC)c(CCNC(=O)c2nc(-c3ccc(Cl)cc3)n3c2CCCCC3)c1	inactive: 78%
O=S(=O)(NC1CCCC1)c1cccc(S(=O)(=O)N2CCCCC2)c1	inactive: 85%
CC(C)COc1ccc(C(=O)N2CCCCC2CCN2CCOCC2)cc1 (centres undefined)	inactive: 82%
COc1ccc(S(=O)(=O)c2c(Nc3cccc(Cl)c3)sc(C(=O)c3ccccc3)c2N)cc1	inactive: 66%
COc1cccc2cc(-c3nc4sc5c(c4c(=O)[nH]3)CCC(C(C)(C)C)C5)c(=O)oc12 (centres undefined)	inactive: 87%
COc1ccc(/C=C/c2nc(C#N)c(N3CCCCC3)o2)cc1OC	inactive: 76%
Cc1ccc2c(=O)cc(C(=O)Nc3c(C)cccc3C)oc2c1	active: 44%
CCc1ccc(NC(=O)Cn2ncn3c(cc4ccccc43)c2=O)cc1	inactive: 118%
CCCCN(Cc1cc2cc(C)ccc2[nH]c1=O)C(=O)c1cccc(Cl)c1	inactive: 72%
Cc1cc2c(cc1S(=O)(=O)NCc1ccc(F)cc1)OCCN2C	inactive: 85%

SMILES	survival
O=C(Nc1ccc(OC(F)(F)F)cc1)c1cc(-c2ccc(Cl)cc2)on1	inactive: 82%
Cc1nc2c3ccccc3nc(NNC(=O)CCC(=O)N3CCN(c4ccc(F)cc4)CC3)n2n1	inactive: 91%
Nc1ccc2nc(CO)[nH]c2c1	inactive: 98%
CC(=O)N1CCCc2ccc(NC(=O)c3ccc(OC(C)C)cc3)cc21	inactive: 68%
Cc1ccc2nc(COc3ccccc3NC(=O)Nc3ccc(F)c(Cl)c3)cc(=O)n2c1	inactive: 94%
CCSc1nc(-c2ccc(OC)cc2)nc2c1Cc1c(CO)cnc(C)c1O2	inactive: 83%
CCC(=O)N1CCc2cc(Br)cc(S(=O)(=O)N3CCCC(C(=O)NCc4ccc(C)cc4)C3)c21 (centres undefined)	inactive: 94%
Cc1occc1C(=O)NC(C)C12CC3CC(CC(C3)C1)C2 (centres undefined)	inactive: 96%
O=C(Cn1ncc2c3ccccc3n(Cc3ccccc3)c2c1=O)NCCc1ccc(Cl)cc1	inactive: 84%
COc1ccc(S(=O)(=O)N2CCC(c3nc4ccccc4s3)CC2)cc1OC	inactive: 86%
COc1cccc(NC(=O)Cn2nc(N3CCN(c4ccccc4)CC3)ccc2=O)c1	inactive: 77%
Cc1ccc(Cl)cc1-n1ncc2c(NCCc3ccccc3)ncnc21	inactive: 60%
CCCNC(=O)c1ccc2c(c1)N=C(CCC)c1ccccc1S2	inactive: 50%
Cc1cccc(CSc2cn(CC(=O)N3CCOCC3)c3ccccc23)c1	inactive: 81%
O=C(Cn1nc2c(cc1=O)CCCC2)NCc1ccc(Cl)cc1	inactive: 115%
CCCn1c(=N)c(C(=O)NCC2CCCO2)cc2c(=O)n3cc(C)ccc3nc21 (centres undefined)	inactive: 152%
Cc1cccc(-c2nc(SCc3cc(=O)c4c(C)cc(C)cc4[nH]3)n[nH]2)c1	inactive: 78%
COCCN(CCOC)S(=O)(=O)c1ccc(C(=O)Nc2sc3c(c2C(N)=O)CCCC3)cc1	inactive: 129%
CCC(=O)N1CCc2cc(Br)cc(S(=O)(=O)N3CCCC(C(=O)Nc4ccc(C)c(F)c4)C3)c21 (centres undefined)	inactive: 113%
Cc1nn(C(C)C(=O)NCc2ccc(OC(C)C)cc2)c(=O)c2c1sc1ccccc12 (centres undefined)	inactive: 90%
Cc1ccc(C(=O)N(Cc2ccc(N(C)C)cc2)CC2CCCO2)cc1 (centres undefined)	inactive: 50%
COc1ccccc1NC(=O)c1c(-c2ccc(C)cc2)nnc2ccccc12	inactive: 105%
Cc1ccc2ccc3cc(C(=O)N4CCN(c5ccccc5F)CC4)nc3c2[nH]1	inactive: 88%

SMILES	survival
CCCCNC(=O)CCC(=O)NNc1nc2ccccc2c2nc(C)nn12	inactive: 89%
CCN(C(=O)CN1C(=O)c2ccccc2Sc2ccc(C(=O)OC)cc21)c1cccc(C)c1	inactive: 120%
CCC(=O)N1CCc2cc(S(=O)(=O)NC(Cc3ccccc3)C(=O)NCc3ccccc3)ccc21 (centres undefined)	inactive: 65%
Cc1ccc(OCC(=O)Nc2ccc(OCc3cc(=O)n4ccsc4n3)cc2)cc1C	inactive: 138%
CCCCNc1nc2c(S(=O)(=O)c3ccc(Br)cc3)nnn2c2ccsc12	inactive: 74%
Cc1ccc(NC(=O)Cn2c(=O)n(Cc3nc(-c4ccccc4)no3)c(=O)c3ccccc32)c(C)c1	inactive: 84%
COc1ccc(-c2csc(C(C#N)=C3CCCC3)n2)cc1	inactive: 90%
Cc1nn(-c2ccccc2)c(OC(=O)c2ccccc2)c1S(=O)(=O)c1ccccc1	inactive: 81%
Cc1ccc2oc(C(=O)Nc3c(C(=O)Nc4cccc(Cl)c4)oc4ccccc34)cc(=O)c2c1	inactive: 67%
COc1ccc(N2CCN(C(=O)Nc3cn(CC(C)C)c(=O)c4ccccc34)CC2)cc1	inactive: 83%
O=C(Nc1cc(Cl)ccc1Cl)c1ccc2c(c1)N(Cc1cccc(Cl)c1)C(=O)c1ccccc1S2=O (centres undefined)	inactive: 94%
O=C(NCc1cccs1)c1ccc2c(c1)sc1nc(-c3ccc(F)cc3)cn12	inactive: 71%
CCOC(=O)N1CCC(NC(=O)c2ccc3c(c2)N(Cc2ccccc2C)C(=O)c2ccccc2S3=O)CC1 (centres undefined)	inactive: 53%
CCOc1ccccc1-c1noc(CSc2nnc(-c3ccccc3)n2-c2ccc(OC)cc2)n1	inactive: 58%
Nc1nc(SCc2cccc3ccccc23)n[nH]1	inactive: 82%
CN(Cc1nc(-c2ccc(Cl)cc2)no1)S(=O)(=O)c1ccccc1	inactive: 55%
CC(C)c1ccc(C2CC(=O)Nc3cc4c(cc32)OCCO4)cc1 (centres undefined)	inactive: 59%
CCOC(=O)CSc1nc2ccccc2c(=O)n1-c1ccc(C(=O)NCCOC)cc1	inactive: 96%
O=C(Nc1ccccc1C(F)(F)F)N1CCOc2ccc(Cl)cc21	inactive: 46%
Cc1ccc(N2C(=O)CS(=O)(=O)C23C(=O)Nc2ccccc23)cc1C (centres undefined)	inactive: 74%
CCc1cccc(C)c1NS(=O)(=O)c1ccc2c(c1)CC(C)N2C(=O)C1CC1 (centres undefined)	inactive: 88%
COc1ccc(-c2noc(CSc3nc4ccccc4[nH]3)n2)cc1OC	inactive: 62%
CCN1C(=O)C(O)(c2c[nH]c3ccccc23)c2cc(Br)ccc21 (centres undefined)	active: 55%

SMILES	survival
Fc1cccc(CSc2ccc(-c3cccs3)nn2)c1	inactive: 94%
Cc1cccc(Cn2c(=O)n(-c3ccccc3C)c(=O)c3c2c2cc(C)ccc2n3C)c1	inactive: 95%
O=C(C1CCCN(S(=O)(=O)c2cccc3nsnc23)C1)N1CCN(c2cccc(Cl)c2)CC1 (centres undefined)	inactive: 54%
CCCN1CCc2nc(N3CCN(C)CC3)ncc2C1	inactive: 91%
COc1ccc(NC(=O)c2cnc(N3CCCC3)nc2)cc1OC	inactive: 95%
CCCC1=Nc2cc(C(=O)N3CCC(C(=O)OCC)CC3)ccc2Sc2ccccc21	inactive: 79%
O=C(OC(C(=O)NC1CCCC1)c1ccccn1)c1cccs1 (centres undefined)	inactive: 88%
O=C(NCc1cccc(F)c1)c1ccccc1NC(=O)c1nsc2ccccc12	inactive: 108%
Cc1cccc(NC(=O)C2CCCN2S(=O)(=O)c2ccc3c(c2)n(C)c(=O)c(=O)n3C)c1 (centres undefined)	inactive: 86%
CCC(=O)N1c2ccccc2CC1C(=O)NCc1cc(Br)ccc1OC (centres undefined)	inactive: 79%
COc1ccccc1C(=O)N(c1ccc(C)cc1)S(=O)(=O)c1ccc(Cl)cc1	inactive: 74%
Cc1ccc2oc3c(c(=O)c2c1)C(c1ccc(O)cc1)N(c1nc(C)c(C)s1)C3=O (centres undefined)	inactive: 162%
CCC(=O)Nc1nnc(S(=O)(=O)N2c3ccccc3CC2C)s1 (centres undefined)	inactive: 92%
Cc1csc2nc(COC(=O)c3ccc(NC(=O)C(C)Oc4ccccc4)cc3)cc(=O)n12 (centres undefined)	inactive: 134%
Cc1ccc(CNc2nc3ccccc3n3cnnc23)cc1	inactive: 86%
Cc1oc(-c2ccc(Cl)cc2)nc1Cn1c(=O)cc(C)c2c(C)nn(-c3ccccc3)c21	inactive: 94%
CC(=O)Nc1cccc(NC(=O)Cn2cnc3c(oc4ccccc43)c2=O)c1	inactive: 82%
Cn1c(=O)n(C)c2cc(N3CCOCC3)c(NS(=O)(=O)c3cccc(C#N)c3)cc21	inactive: 87%
CCNC(=O)c1ccc(C2SCC(=O)N2Cc2ccco2)cc1 (centres undefined)	inactive: 104%
O=C(CCSCc1cccc(Cl)c1)NCCc1ccc(Cl)cc1	inactive: 76%
